# In the supplement of paper PMC3334620:
# In all, about 33,000 sequences were measured (“E-score (-0.5 to 0.5)”: median about -0.011, highest 2% from about 0.28 on). Some of the results follow.
# Target: T1, Gcr1 (UniProt P07261)
# T1 sequence: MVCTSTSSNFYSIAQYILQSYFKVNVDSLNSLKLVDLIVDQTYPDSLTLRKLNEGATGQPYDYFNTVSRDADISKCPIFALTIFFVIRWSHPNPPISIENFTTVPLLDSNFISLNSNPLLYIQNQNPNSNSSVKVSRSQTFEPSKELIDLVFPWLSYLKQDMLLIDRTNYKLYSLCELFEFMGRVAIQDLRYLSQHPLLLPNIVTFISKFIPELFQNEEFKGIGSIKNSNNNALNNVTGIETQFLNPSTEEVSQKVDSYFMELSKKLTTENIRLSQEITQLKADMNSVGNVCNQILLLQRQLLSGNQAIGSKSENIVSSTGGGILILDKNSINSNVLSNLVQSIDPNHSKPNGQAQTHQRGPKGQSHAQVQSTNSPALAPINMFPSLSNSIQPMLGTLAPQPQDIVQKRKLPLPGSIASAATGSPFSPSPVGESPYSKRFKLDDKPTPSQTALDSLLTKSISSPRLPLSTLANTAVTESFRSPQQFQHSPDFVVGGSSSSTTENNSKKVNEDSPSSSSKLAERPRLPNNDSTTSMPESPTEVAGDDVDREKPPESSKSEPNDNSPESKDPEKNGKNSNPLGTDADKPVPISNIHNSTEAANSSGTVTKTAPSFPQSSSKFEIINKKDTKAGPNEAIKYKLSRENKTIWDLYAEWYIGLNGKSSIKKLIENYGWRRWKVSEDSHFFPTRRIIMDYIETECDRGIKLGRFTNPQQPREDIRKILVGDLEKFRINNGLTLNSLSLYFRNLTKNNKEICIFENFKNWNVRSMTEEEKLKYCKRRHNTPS
# Test: PBM E-score (8-mer binding enrichment) (E-score (-0.5 to 0.5)); higher = stronger / more preferred TF binding; most listed sequences are background and not binding sites
# Conditions: protein concentration: 100 nM; construct: GST-full length
# Summary of the method: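 Yeast transcription factors carrying a GST tag, as full-length proteins or DNA-binding domains, were produced by PURExpress in vitro transcription/translation. About 100-200 nM protein was applied to universal all-10-mer Agilent arrays, double-stranded by primer extension on fresh or once-stripped slides. Bound protein was detected with fluorescent anti-GST, and scans were normalised with masliner. The Universal PBM Analysis Suite gave each ungapped eight-base word, pooled with its reverse complement, an E-score, a modified Wilcoxon-Mann-Whitney statistic.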
row,Sequence,PBM E-score
1,CAAGTCGG,-0.16
2,CTACACAG,0.0109
3,GTAGGCAC,0.00518
4,CCGACGAA,0.0829
5,CAGTAAGA,-0.0297
6,ACCGTGGA,0.00734
7,ACTCACGG,-0.0752
8,AGTGACCG,-0.129
9,GCCTAGGC,-0.0945
10,ACGTCTAG,-0.00074
11,CCTGGCTC,0.00517
12,GCCTGACC,-0.241
13,AGGTGAGC,-0.131
14,ACCCCCTG,-0.183
15,AGTGGTGC,0.305
16,ACCACGCG,0.0135
17,ATAGTGGG,0.308
18,CGTCATTA,0.0426
19,CGTTTATC,-0.12
20,ATCATCCC,-0.202
21,AACCAACA,0.0425
22,ACTAAACA,0.212

row,Sequence,PBM E-score
1,ATGACGAC,0.0132
2,GTCAACCA,-0.238
3,CGTGGCAG,0.0503
4,GTTAGGGA,0.0237
5,CGCGTGGA,-0.128
6,ATAGGCCG,0.00788
7,CACAGGTC,-0.106
8,GTACTTAA,-0.0145
9,ATACAAAC,-0.00317
10,AACCGCGT,-0.0468
11,CTAGGAGA,-0.062
12,CACGTTCG,-0.185
13,TGACTCCA,0.0388
14,TTAATAAA,0.118
15,CATGAACC,-0.133
16,CACGTAGC,0.0605
17,CCCCTAAG,-0.0012
18,GAATTGGA,-0.0813
19,CGTTGCCC,-0.096
20,CCGTCAGG,-0.0623
21,CCGATACG,0.0148
22,ACTCCTGG,-0.00939

row,Sequence,PBM E-score
1,AAGACTTC,-0.0355
2,GACCATGC,-0.134
3,GTAATGGA,0.0927
4,GAGACCGA,-0.185
5,TCCAAAAA,0.253
6,CAACGTCA,-0.0477
7,AACGAACA,-0.0532
8,GGCGCCGA,0.286
9,AGCCTGCC,-0.173
10,ATGAAATA,0.0438
11,GGGTAGAA,0.0149
12,GGGAGTAC,-0.0905
13,ATCCATAC,0.139
14,ACCCAACG,-0.0521
15,AATCGCTA,-0.116
16,CCTAAAGC,-0.0253
17,TGAACTCA,-0.00543
18,GCCCTGAA,-0.132
19,AAGATTAG,0.0786
20,AAACTCCC,-0.144
21,ATATGGAC,-0.0174
22,CCCATTCC,0.209

row,Sequence,PBM E-score
1,GCAGGCCC,-0.133
2,CTTCAACC,0.0357
3,ACGATGCT,0.271
4,CCTAACCC,-0.176
5,GTCAGGAC,0.00402
6,AACTAGAA,0.197
7,GCCTTAGC,-0.156
8,GTGGTCTA,-0.129
9,ATTTTCGA,-0.0355
10,GATGTCCC,-0.0855
11,GCGTTGAA,-0.163
12,CCGCGCCA,-0.0281
13,CAGTTGAC,-0.1
14,AATAGAAC,-0.107
15,CTAGTAGA,0.151
16,CTTGGGAA,0.0288
17,CACGGCCC,-0.132
18,ACACCGTC,-0.0804
19,AGCGCCCG,0.272
20,ATTGAGCG,0.00193
